The supplement of paper PMC10369915
Some of the results follow. Cut-off read from the data, not from the text of the source: active = 3.2 or more and inactive = the rest. Most of these values are background signal.

B1: ORC6_Y232_Y232S (peptide)
chain: DLTQDSEEWKR
B2: OR8D4_Y132_R133K (peptide)
chain: CSPLLYKVIMS
B3: OR1A1_Y288 (peptide)
chain: LNPFIYSLRNR
B4: OAT_Y55_N54K_YF (peptide)
chain: FGAHKYHPLPV
B5: OAT_Y85_N89K (peptide)
chain: DFLSSYSAVKQ
B6: OAT_Y55_N54K (peptide)
chain: YGAHKYHPLPV
B7: OR4C12_Y285_V283L (peptide)
chain: LNPLVYTLRNA
B8: OR1A2_Y288 (peptide)
chain: LNPFIYSLRNW
B9: OTC_Y317 (peptide)
chain: DDEVFYSPRSL
B10: OTOF_Y1231 (peptide)
chain: LRRFIYRPPDR
B11: OR1D2_Y218_V214M (peptide)
chain: FMIISYVLIIR
B12: OTC_Y55 (peptide)
chain: GEEIKYMLWLS
B13: OR4C46_Y285_K288R (peptide)
chain: LNPLIYTLRNA
B14: OR10C1_Y251 (peptide)
chain: MVSLFYGTALF
B15: OTC_Y345_L341P (peptide)
chain: SPLTDYSPQLQ
B16: OTOF_Y254 (peptide)
chain: GRPMDYQVSIT
B17: OPTN_Y356_T357P (peptide)
chain: KQELVYPNKKL
B18: OPRK1_Y369 (peptide)
chain: VQDPAYLRDID

target: SHP2 C-SH2 domain E139D; assay: enrichment score (SH2-bound / input frequency) (ratio); bacterial display of known human phosphotyrosine sites (pTyr-Var adds point mutants) read by sequencing; higher = stronger binding; tyrosines were phosphorylated by kinases first; conditions: peptide library: pTyr-Var
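Note: displayed peptides selected on beads carrying the immobilized SH2 domain, with library peptides lacking any tyrosine serving as negative controls.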

Binder | enrichment score
B1 | inactive: 0.42
B2 | inactive: 0.754
B3 | inactive: 0.217
B4 | inactive: 2.78
B5 | inactive: 1.37
B6 | inactive: 3.08
B7 | inactive: 0.898
B8 | inactive: 2.95
B9 | inactive: 0.741
B10 | inactive: 0.235
B11 | inactive: 2.03
B12 | inactive: 0.741
B13 | inactive: 1.49
B14 | inactive: 0.876
B15 | inactive: 0.822
B16 | inactive: 0.946
B17 | inactive: 0.652
B18 | inactive: 0.785

target: SHP2 C-SH2 domain wild-type; assay: as above; conditions: peptide library: pTyr-Var

Binder | enrichment score
B1 | inactive: 0.606
B2 | inactive: 1.21
B3 | inactive: 0.249
B4 | inactive: 2.44
B5 | inactive: 1.98
B6 | inactive: 2.55
B7 | inactive: 1.13
B8 | inactive: 2.18
B9 | inactive: 0.705
B10 | inactive: 0.38
B11 | inactive: 1.71
B12 | inactive: 0.67
B13 | inactive: 1.09
B14 | inactive: 1.1
B15 | inactive: 0.606
B16 | inactive: 0.814
B17 | inactive: 0.674
B18 | inactive: 0.642

target: SHP2 N-SH2 domain L43F; assay: as above; conditions: peptide library: pTyr-Var

Binder | enrichment score
B1 | inactive: 0.634
B2 | inactive: 0.949
B3 | inactive: 0.422
B4 | inactive: 2.74
B5 | inactive: 0.783
B6 | inactive: 2.76
B7 | active: 4.47
B8 | active: 3.69
B9 | inactive: 0.664
B10 | inactive: 0.346
B11 | inactive: 1.33
B12 | inactive: 0.946
B13 | active: 6.55
B14 | inactive: 0.712
B15 | inactive: 0.734
B16 | inactive: 0.773
B17 | inactive: 0.789
B18 | inactive: 0.704

target: SHP2 N-SH2 domain T42A; assay: as above; conditions: peptide library: pTyr-Var

Binder | enrichment score
B1 | inactive: 0.457
B2 | inactive: 0.802
B3 | inactive: 0.414
B4 | inactive: 2.08
B5 | inactive: 0.804
B6 | inactive: 2.14
B7 | inactive: 1.04
B8 | inactive: 2.23
B9 | inactive: 0.582
B10 | inactive: 0.398
B11 | inactive: 1.54
B12 | inactive: 0.709
B13 | inactive: 1.11
B14 | inactive: 0.814
B15 | inactive: 0.58
B16 | inactive: 0.832
B17 | inactive: 0.787
B18 | inactive: 0.652

target: SHP2 N-SH2 domain T52S; assay: as above; conditions: peptide library: pTyr-Var

Binder | enrichment score
B1 | inactive: 0.536
B2 | inactive: 0.618
B3 | inactive: 0.327
B4 | inactive: 2.55
B5 | inactive: 1.05
B6 | inactive: 2.28
B7 | active: 5.19
B8 | inactive: 3.01
B9 | inactive: 0.506
B10 | inactive: 0.413
B11 | inactive: 1.94
B12 | inactive: 0.542
B13 | active: 8.6
B14 | inactive: 0.879
B15 | inactive: 0.752
B16 | inactive: 0.906
B17 | inactive: 0.821
B18 | inactive: 0.574

target: SHP2 N-SH2 domain wild-type; assay: as above; conditions: peptide library: pTyr-Var

Binder | enrichment score
B1 | inactive: 0.706
B2 | inactive: 1.51
B3 | inactive: 0.223
B4 | inactive: 2.36
B5 | inactive: 1.02
B6 | active: 3.4
B7 | active: 7.21
B8 | inactive: 1.49
B9 | inactive: 0.749
B10 | inactive: 0.295
B11 | inactive: 1.61
B12 | inactive: 0.979
B13 | inactive: 2.1
B14 | inactive: 0.827
B15 | inactive: 0.816
B16 | inactive: 0.915
B17 | inactive: 0.956
B18 | inactive: 0.668
